Data published in the supplement of paper PMC10441789.
The list shows a part of the results. Antibody binding of pooled human sera (four to six donors per pool; dilution not stated) to peptides of the Trypanosoma cruzi antigen TSSA on microarrays. Quantile-normalised fluorescence in arbitrary units, mean of duplicate arrays; higher = more binding. No active / inactive call. The uninfected pools are read here as the healthy donors of the same country. The strongest signals lie near the top of the scale (about 60,000).

Assays:
Assay in all cases: antibody binding signal (normalised fluorescence) (arbitrary fluorescence units); higher = stronger serum antibody binding to peptide
[1] = test system: pooled sera of chronic Chagas disease patients, Argentina
Procedure: (§1)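 Microarray of 15-residue peptides over residues 30-55 of Trypanosoma cruzi TSSAII, each with 1 to 10 substitutions at naturally variable positions, probed with one serum pool per country.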

[2] = test system: pooled sera of chronic Chagas disease patients, Bolivia
Procedure: as §1

[3] = test system: pooled sera of chronic Chagas disease patients, Brazil
Procedure: as §1

[4] = test system: pooled sera of chronic Chagas disease patients, Colombia
Procedure: as §1

[5] = test system: pooled sera of chronic Chagas disease patients, Mexico
Procedure: as §1

[6] = test system: pooled sera of chronic Chagas disease patients, USA
Procedure: as §1

[7] = test system: pooled sera of uninfected people, Argentina
Procedure: as §1

[8] = test system: pooled sera of uninfected people, Bolivia
Procedure: as §1

[9] = test system: pooled sera of uninfected people, Brazil
Procedure: as §1

[10] = test system: pooled sera of uninfected people, Mexico
Procedure: as §1

[11] = test system: pooled sera of uninfected people, USA
Procedure: as §1

| Sequence | antibody binding signal [1] | antibody binding signal [2] | antibody binding signal [3] | antibody binding signal [4] | antibody binding signal [5] | antibody binding signal [6] | antibody binding signal [7] | antibody binding signal [8] | antibody binding signal [9] | antibody binding signal [10] | antibody binding signal [11] |
| --- | --- | --- | --- | --- | --- | --- | --- | --- | --- | --- | --- |
| SGTDKKPATGETPSQ | 32800 | 26300 | 34600 | 4080 | 394 | 23200 | 245 | 418 | 195 | 3380 | 181 |
| KEKKPAAGGAPSPSG | 196 | 185 | 174 | 1490 | 205 | 313 | 126 | 92.6 | 144 | 80.3 | 323 |
| KEKKTATGETPSQSG | 449 | 320 | 737 | 269 | 241 | 4580 | 143 | 107 | 103 | 98.2 | 117 |
| SGKDNKTATGGAPSQ | 1100 | 269 | 679 | 2630 | 749 | 2200 | 297 | 166 | 134 | 109 | 147 |
| GKENKPAAGETPSPS | 7140 | 1530 | 16600 | 9720 | 8670 | 13800 | 680 | 466 | 157 | 422 | 1810 |
| ENKTAAGGAPSQSGA | 293 | 1600 | 708 | 5340 | 586 | 592 | 331 | 246 | 668 | 516 | 233 |
| TDNKPAAGGAPSPSG | 1240 | 562 | 3560 | 1440 | 215 | 773 | 198 | 379 | 311 | 398 | 148 |
| TISTPPSGTDNKTAA | 33300 | 44700 | 48800 | 1210 | 13200 | 18600 | 3480 | 879 | 1870 | 242 | 554 |
| PPSGKEKKPAAGGTP | 1440 | 482 | 1570 | 2560 | 6250 | 2520 | 349 | 351 | 516 | 73.3 | 220 |
| GKENKAATGGTPSQP | 4690 | 2180 | 10800 | 8950 | 7360 | 14300 | 508 | 108 | 184 | 828 | 160 |
| EKKPATGEAPSPPGA | 45400 | 38000 | 47400 | 395 | 316 | 43800 | 936 | 978 | 314 | 306 | 784 |
| KENKAATGETPSPPG | 3210 | 810 | 22200 | 264 | 219 | 12700 | 199 | 223 | 136 | 115 | 2310 |
| GKDNKPAAGGTPSQS | 559 | 229 | 511 | 1310 | 1850 | 1020 | 252 | 459 | 388 | 187 | 98.6 |
| GKEKKTAAGEAPSPS | 1110 | 231 | 342 | 1150 | 2010 | 5080 | 162 | 75.5 | 88.9 | 93.4 | 55.2 |
| KEKKTATGEAPSPPG | 5870 | 4220 | 5260 | 258 | 239 | 13400 | 165 | 76.3 | 114 | 80.5 | 106 |
| DNKPATGGAPSPSGA | 713 | 21500 | 5040 | 364 | 358 | 2980 | 373 | 981 | 683 | 330 | 163 |
| KPATGGAPSPSGASS | 775 | 2320 | 469 | 262 | 2490 | 1130 | 291 | 976 | 170 | 98.3 | 282 |
| TPPSGKENKTAAGGA | 10100 | 722 | 3200 | 592 | 2080 | 2170 | 2550 | 911 | 240 | 211 | 321 |
| PPSGKDNKTAAGGAP | 869 | 287 | 1680 | 3550 | 5670 | 2850 | 550 | 403 | 154 | 103 | 310 |
| GKEKKPATGEAPSQP | 43500 | 23200 | 43500 | 9060 | 14500 | 33700 | 869 | 304 | 131 | 110 | 373 |
| NKPAAGEAPSQSGAS | 1230 | 25000 | 36000 | 298 | 256 | 17300 | 394 | 851 | 631 | 284 | 959 |
| SGTDKKTAAGGAPSP | 216 | 345 | 690 | 12300 | 2580 | 1290 | 234 | 136 | 176 | 472 | 153 |
| TPPSGKDKKPATGET | 12900 | 4580 | 9380 | 344 | 39800 | 1710 | 368 | 625 | 120 | 1640 | 571 |
| TENKTATGETPSQPG | 20200 | 3390 | 34400 | 203 | 157 | 7580 | 106 | 756 | 294 | 187 | 234 |
| SGTEKKTATGGAPSP | 4640 | 275 | 2160 | 3850 | 1560 | 2090 | 366 | 650 | 122 | 292 | 158 |

| Sequence | antibody binding signal [1] | antibody binding signal [2] | antibody binding signal [3] | antibody binding signal [4] | antibody binding signal [5] | antibody binding signal [6] | antibody binding signal [7] | antibody binding signal [8] | antibody binding signal [9] | antibody binding signal [10] | antibody binding signal [11] |
| --- | --- | --- | --- | --- | --- | --- | --- | --- | --- | --- | --- |
| KEKKTATGGAPSPPG | 421 | 245 | 230 | 1280 | 274 | 707 | 237 | 101 | 120 | 117 | 108 |
| PSGTENKAATGEAPS | 45600 | 42000 | 45900 | 713 | 1110 | 33200 | 1220 | 457 | 193 | 259 | 238 |
| GKENKAAAGGAPSQS | 1770 | 1170 | 6500 | 6240 | 4890 | 9970 | 425 | 87.2 | 137 | 114 | 133 |
| SGTEKKPATGGAPSQ | 8300 | 591 | 7140 | 2130 | 3340 | 2930 | 458 | 1790 | 626 | 264 | 923 |
| PPSGTDKKPATGGAP | 20000 | 2400 | 38000 | 4780 | 42700 | 2000 | 1090 | 1350 | 301 | 4550 | 535 |
| KDNKPAAGGTPSPSG | 212 | 229 | 168 | 851 | 200 | 201 | 243 | 217 | 340 | 136 | 123 |
| TISTPPSGKDNKPAT | 15800 | 5350 | 29000 | 408 | 20900 | 13500 | 416 | 1370 | 394 | 146 | 300 |
| ISTPPSGKDKKTAAG | 6370 | 492 | 549 | 581 | 28100 | 514 | 147 | 330 | 116 | 84.5 | 162 |
| TENKTAAGGTPSPPG | 29300 | 361 | 199 | 4510 | 350 | 1470 | 263 | 159 | 1050 | 1710 | 165 |
| KDNKAAAGGAPSPPG | 191 | 243 | 240 | 1480 | 166 | 613 | 472 | 2460 | 160 | 76.3 | 171 |
| KDNKTAAGETPSQPG | 1420 | 607 | 28500 | 2030 | 208 | 1370 | 525 | 389 | 194 | 156 | 202 |
| GKEKKAAAGEAPSQS | 2930 | 2440 | 914 | 3690 | 2990 | 8000 | 142 | 94.6 | 98.6 | 93.1 | 107 |
| GTENKTATGETPSPP | 29900 | 4910 | 3170 | 600 | 954 | 7330 | 165 | 307 | 143 | 200 | 499 |
| ENKTATGGAPSQSGA | 557 | 2630 | 1120 | 516 | 546 | 979 | 335 | 182 | 440 | 332 | 196 |
| SGTENKPAAGGTPSQ | 49100 | 17600 | 33300 | 1340 | 1160 | 7140 | 611 | 1710 | 1010 | 371 | 150 |
| TDKKTAAGGTPSQSG | 1620 | 248 | 431 | 11300 | 441 | 1820 | 277 | 98.8 | 905 | 500 | 175 |
| KEKKAAAGGTPSPSG | 181 | 186 | 124 | 1740 | 162 | 1280 | 95.4 | 82.4 | 474 | 145 | 133 |
| PSGTEKKTATGETPS | 5980 | 3380 | 3840 | 1400 | 959 | 8420 | 380 | 378 | 331 | 183 | 369 |
| DKKPAAGGAPSQSGA | 508 | 216 | 340 | 3950 | 288 | 474 | 193 | 149 | 255 | 90.8 | 179 |
| KEKKTAAGGAPSPPG | 164 | 219 | 191 | 2420 | 278 | 541 | 126 | 92.3 | 84.4 | 85.4 | 101 |
| KENKPAAGGAPSQPG | 193 | 269 | 15000 | 703 | 452 | 2090 | 227 | 180 | 128 | 133 | 181 |
| ENKAAAGETPSPPGA | 189 | 605 | 13200 | 288 | 232 | 3080 | 106 | 214 | 109 | 114 | 348 |
| KDNKPAAGGAPSQPG | 189 | 215 | 12800 | 755 | 152 | 250 | 449 | 202 | 132 | 218 | 127 |
| GKENKPATGGTPSQP | 3310 | 572 | 15700 | 4300 | 5370 | 12900 | 677 | 480 | 258 | 521 | 132 |
